Values belong to the binder of their own block, whether it stands above or below them.
How the values were obtained:
DNAJB1 G194C-AF488 = DNAJB1 G194C-AF488 (UniProt P25685 1-340, G194C, AF488 on G194C); test: fluorescence polarisation
DNAJA2-AF488 = DNAJA2-AF488 (UniProt O60884 1-412, AF488 (site not stated)); test: fluorescence polarisation
full-length DNAJB1 [1] = molecular target: T1, full-length DNAJB1 (UniProt P25685 1-340); test: co-sedimentation
[2] = molecular target: DNAJB1 (residues 154-341) (UniProt P25685 in part); test: NMR titration
full-length DNAJB1 [3] = molecular target: T1, full-length DNAJB1; test: NMR titration
DNAJA2 = DNAJA2 (UniProt O60884 1-412); test: NMR titration
full-length DNAJB1 [4] = molecular target: T1, full-length DNAJB1; test: NMR titration; remark: listed apart in the source

- Kd (DNAJB1 G194C-AF488): 1.7 µM
- Kd (DNAJA2-AF488): 7.6 µM
- binding result (full-length DNAJB1 [1]): binds
B1: preformed tau^4R fibrils (other)
chain: not shown

- binding result (DNAJA2): binds
- binding result (full-length DNAJB1 [4]): binds
B4: tau^4R P301S mutant (domain or fragment)
chain: not shown

The next lines start with the binder.

B2: tau^4R ([…], C322A), monomeric (domain or fragment)
chain: not shown
- binding result [2]: binds
- binding result (full-length DNAJB1 [3]): binds

B3: tau^4R P301L mutant (domain or fragment)
chain: not shown
- binding result (DNAJA2): binds
- binding result (full-length DNAJB1 [4]): binds

Source: paper doi:10.1101/2021.04.11.439324 (bioRxiv, 2021)
